The structures appear in SMILES notation. For some of these results: Most of the strong results are listed elsewhere, so they are rarer here than in the full data. This is a selection; strong and weak results do not stand in their true shares.

Assay [1] concerns the target T1, Inhibitor of nuclear factor kappa-B kinase subunit epsilon (Homo sapiens) (UniProt Q14164).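 Further: reported values are averaged percent inhibition figures against human IKKε.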
T1 sequence (whole entry): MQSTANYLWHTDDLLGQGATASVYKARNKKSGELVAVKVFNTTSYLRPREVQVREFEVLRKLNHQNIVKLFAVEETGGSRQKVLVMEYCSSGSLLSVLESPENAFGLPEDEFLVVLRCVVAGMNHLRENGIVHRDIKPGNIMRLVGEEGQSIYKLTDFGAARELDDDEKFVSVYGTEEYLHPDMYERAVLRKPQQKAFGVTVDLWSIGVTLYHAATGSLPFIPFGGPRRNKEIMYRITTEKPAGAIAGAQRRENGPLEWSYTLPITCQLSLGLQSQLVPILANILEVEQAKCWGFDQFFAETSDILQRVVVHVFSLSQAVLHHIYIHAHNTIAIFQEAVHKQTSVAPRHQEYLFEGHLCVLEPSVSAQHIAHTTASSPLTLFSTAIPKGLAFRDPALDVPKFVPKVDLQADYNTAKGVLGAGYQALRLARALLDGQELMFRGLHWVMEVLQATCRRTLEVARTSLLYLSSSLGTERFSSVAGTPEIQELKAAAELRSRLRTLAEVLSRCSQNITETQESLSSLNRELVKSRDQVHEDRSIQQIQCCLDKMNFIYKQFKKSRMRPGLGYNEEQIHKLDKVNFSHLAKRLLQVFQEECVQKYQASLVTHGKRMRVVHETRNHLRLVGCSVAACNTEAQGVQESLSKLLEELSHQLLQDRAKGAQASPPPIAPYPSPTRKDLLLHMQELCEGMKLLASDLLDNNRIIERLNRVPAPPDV
The note with it: at 1 µM.

In assay [2] the target is T2, Serine/threonine-protein kinase Nek1 (Homo sapiens) (UniProt Q96PY6).
T2 sequence (whole entry): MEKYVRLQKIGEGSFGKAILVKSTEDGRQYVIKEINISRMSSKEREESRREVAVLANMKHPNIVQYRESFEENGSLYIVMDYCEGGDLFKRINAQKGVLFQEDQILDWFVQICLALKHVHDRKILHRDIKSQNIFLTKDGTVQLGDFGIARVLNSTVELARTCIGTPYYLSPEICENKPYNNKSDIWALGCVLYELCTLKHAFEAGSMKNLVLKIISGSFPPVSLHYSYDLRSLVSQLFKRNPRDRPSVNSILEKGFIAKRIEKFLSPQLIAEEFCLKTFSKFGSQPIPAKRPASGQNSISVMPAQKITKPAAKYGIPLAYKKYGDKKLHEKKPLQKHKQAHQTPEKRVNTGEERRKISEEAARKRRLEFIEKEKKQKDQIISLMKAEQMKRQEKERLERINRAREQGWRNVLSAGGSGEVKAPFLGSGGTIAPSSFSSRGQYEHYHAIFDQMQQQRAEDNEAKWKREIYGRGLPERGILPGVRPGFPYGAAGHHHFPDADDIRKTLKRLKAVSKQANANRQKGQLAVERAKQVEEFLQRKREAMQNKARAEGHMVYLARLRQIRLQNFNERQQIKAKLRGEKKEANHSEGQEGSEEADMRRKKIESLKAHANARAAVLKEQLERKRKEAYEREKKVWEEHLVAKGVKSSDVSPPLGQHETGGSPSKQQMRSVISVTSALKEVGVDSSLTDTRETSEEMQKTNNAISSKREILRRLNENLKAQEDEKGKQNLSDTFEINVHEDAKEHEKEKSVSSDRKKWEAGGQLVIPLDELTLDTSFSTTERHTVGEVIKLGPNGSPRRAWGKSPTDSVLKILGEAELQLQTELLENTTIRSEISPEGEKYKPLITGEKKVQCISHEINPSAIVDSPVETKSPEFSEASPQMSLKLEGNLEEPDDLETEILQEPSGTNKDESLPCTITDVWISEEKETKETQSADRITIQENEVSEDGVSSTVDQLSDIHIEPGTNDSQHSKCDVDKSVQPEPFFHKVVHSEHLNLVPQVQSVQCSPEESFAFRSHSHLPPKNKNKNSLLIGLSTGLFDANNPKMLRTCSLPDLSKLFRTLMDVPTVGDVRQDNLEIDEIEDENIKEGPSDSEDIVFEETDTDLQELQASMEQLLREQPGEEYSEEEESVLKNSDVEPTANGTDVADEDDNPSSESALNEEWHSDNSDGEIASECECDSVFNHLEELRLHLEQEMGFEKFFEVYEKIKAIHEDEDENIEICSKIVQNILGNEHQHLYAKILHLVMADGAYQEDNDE
The note with it: at 0.1 µM.

For assay [3], the target named is T2, Serine/threonine-protein kinase Nek1 (Homo sapiens). The note with it: at 1 µM.
In assay [4] the target is T3, Serine/threonine-protein kinase Nek2 (Homo sapiens) (UniProt P51955).
T3 sequence (whole entry): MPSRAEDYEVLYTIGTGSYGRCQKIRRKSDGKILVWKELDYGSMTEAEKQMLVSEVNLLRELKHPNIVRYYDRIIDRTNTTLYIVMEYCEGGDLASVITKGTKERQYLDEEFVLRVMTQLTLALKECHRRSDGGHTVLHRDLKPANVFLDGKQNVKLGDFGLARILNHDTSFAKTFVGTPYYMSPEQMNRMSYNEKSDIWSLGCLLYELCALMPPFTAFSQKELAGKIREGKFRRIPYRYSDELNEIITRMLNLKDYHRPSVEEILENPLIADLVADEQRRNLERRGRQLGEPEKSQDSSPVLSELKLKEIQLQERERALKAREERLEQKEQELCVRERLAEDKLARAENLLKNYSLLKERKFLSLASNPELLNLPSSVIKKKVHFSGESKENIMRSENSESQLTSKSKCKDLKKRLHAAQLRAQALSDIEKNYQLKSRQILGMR
The note with it: at 0.1 µM.

Assay [5] deals with T3, Serine/threonine-protein kinase Nek2 (Homo sapiens). The note with it: at 1 µM.
Assay [6] has as its target T4, Serine/threonine-protein kinase Nek6 (Homo sapiens) (UniProt Q9HC98).
T4 sequence (whole entry): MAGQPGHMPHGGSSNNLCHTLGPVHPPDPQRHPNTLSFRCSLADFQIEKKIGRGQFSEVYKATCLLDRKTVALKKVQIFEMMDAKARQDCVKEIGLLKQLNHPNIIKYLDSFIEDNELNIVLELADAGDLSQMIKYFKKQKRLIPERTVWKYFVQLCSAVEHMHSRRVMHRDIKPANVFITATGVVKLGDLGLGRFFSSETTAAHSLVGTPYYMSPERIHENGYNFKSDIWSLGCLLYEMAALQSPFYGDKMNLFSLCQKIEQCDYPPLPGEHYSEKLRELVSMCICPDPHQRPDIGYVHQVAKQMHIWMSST
The note with it: at 0.1 µM.

Assay [7] addresses T4, Serine/threonine-protein kinase Nek6 (Homo sapiens). The note with it: at 1 µM.
In assay [8] the target is Serine/threonine-protein kinase Nek7 (Homo sapiens) (UniProt Q8TDX7). The note with it: at 0.1 µM.
For assay [9] the target is unchanged. The note with it: at 1 µM.
For assay [10], the target named is T5, Serine/threonine-protein kinase Nek9 (Homo sapiens) (UniProt Q8TD19).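 Further: reported value is the mean percent inhibition of NEK9.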
T5 sequence (whole entry): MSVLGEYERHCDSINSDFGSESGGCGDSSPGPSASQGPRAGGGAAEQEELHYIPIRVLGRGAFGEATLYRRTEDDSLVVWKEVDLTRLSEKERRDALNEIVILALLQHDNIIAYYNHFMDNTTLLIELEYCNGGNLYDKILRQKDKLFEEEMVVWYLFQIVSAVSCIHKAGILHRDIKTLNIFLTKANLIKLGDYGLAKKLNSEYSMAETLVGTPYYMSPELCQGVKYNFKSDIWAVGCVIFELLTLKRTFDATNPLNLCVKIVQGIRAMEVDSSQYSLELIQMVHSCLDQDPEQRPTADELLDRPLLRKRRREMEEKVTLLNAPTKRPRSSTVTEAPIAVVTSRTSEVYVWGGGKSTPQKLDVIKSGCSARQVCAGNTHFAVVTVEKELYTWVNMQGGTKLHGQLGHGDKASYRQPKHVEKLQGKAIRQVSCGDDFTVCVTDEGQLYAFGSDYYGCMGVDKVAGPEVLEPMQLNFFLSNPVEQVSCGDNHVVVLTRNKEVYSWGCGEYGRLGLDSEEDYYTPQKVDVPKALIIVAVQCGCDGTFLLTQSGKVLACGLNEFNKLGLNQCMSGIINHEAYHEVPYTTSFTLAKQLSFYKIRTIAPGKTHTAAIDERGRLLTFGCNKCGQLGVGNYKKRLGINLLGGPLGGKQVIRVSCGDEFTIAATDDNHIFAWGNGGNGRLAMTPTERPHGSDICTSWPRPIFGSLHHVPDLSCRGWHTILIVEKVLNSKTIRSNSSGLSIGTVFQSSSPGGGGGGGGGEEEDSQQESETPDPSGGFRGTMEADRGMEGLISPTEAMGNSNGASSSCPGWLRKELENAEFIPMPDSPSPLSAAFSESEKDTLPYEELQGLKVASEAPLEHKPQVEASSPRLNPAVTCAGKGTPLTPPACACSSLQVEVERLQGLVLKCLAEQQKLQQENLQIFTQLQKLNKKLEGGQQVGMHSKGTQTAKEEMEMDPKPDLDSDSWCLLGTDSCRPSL
The note with it: at 0.1 µM.

Chain of UniProt Q8TDX7 (Q8TDX7 whole entry, looked up): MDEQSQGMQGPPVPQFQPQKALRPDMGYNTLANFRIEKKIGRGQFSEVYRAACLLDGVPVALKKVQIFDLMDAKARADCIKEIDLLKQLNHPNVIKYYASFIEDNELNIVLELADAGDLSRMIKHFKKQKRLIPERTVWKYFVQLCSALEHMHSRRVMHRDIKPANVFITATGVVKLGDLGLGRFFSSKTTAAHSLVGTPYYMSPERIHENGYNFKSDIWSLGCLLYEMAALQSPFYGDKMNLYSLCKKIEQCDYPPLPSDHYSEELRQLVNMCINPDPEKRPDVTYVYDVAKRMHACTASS

Broadly, the inhibition is the drop in the measured response relative to a control, in per cent. For the molecule `O=C1NC(=O)C(c2ccccc2Cl)=C1Nc1cc(Cl)c(O)c(Cl)c1`, the inhibition in assay [1] was found to be 9.8%; in [2] it was 1.65%; in assay [3], 3.04%; in [4], 3.22%; in assay [5], 3.16%; in assay [6], 3.32%. Besides, the inhibition is 3.77% in [7], 4.4% in assay [8], -3.22% in assay [9] and 0.96% in [10].
As to `Fc1ccc(-c2ncn(C3CCNCC3)c2-c2ccnc(Oc3ccc(Cl)cc3)n2)cc1`, the inhibition in assay [1] was -0.24%; in assay [2], 0.52%; in assay [3], 1.21%; in [4], 0.2%; in assay [5], 1.4%; in assay [6] it was 1.13%. The inhibition was 3.17% in assay [7], -0.19% in assay [8], 4.4% in assay [9] and 3.96% in [10].
For `O=C1NC(=O)C(c2cccc([N+](=O)[O-])c2)=C1Nc1cc(Cl)c(O)c(Cl)c1`, the inhibition turned out to be 15.2% in assay [1]; 0.27% in [2]; 1.19% in [3]; 0.69% in [4]; 0.86% in [5]; 1.25% in assay [6]. Also, the inhibition in assay [7] stood at 1.08%; in assay [8] it was 0.57%; in assay [9], 0.43%; in [10], 3.72%.
Take `COc1ccccc1Oc1nccc(-c2c(-c3ccc(F)cc3)ncn2C2CCNCC2)n1`: the inhibition is 7.44% in [1]; 3.05% in assay [2]; 1.85% in assay [3]; 6.39% in assay [4]; 7.03% in assay [5]; 1.92% in assay [6]. Besides, the inhibition worked out at 1.05% in assay [7], 3.35% in assay [8], 7.05% in assay [9] and 9.33% in [10].
Regarding `COc1ccccc1C1=C(Nc2ccccc2)C(=O)NC1=O`, the inhibition in assay [1] stood at 7.53%; in [2] it was 2.8%; in assay [3], 2.4%; in assay [4], 3.27%; in assay [5] it was 4.08%; in assay [6], 1.23%. Besides, the inhibition in assay [7] amounted to 2.63%; in assay [8], 3.48%; in assay [9], 4.14%; in [10] it was 9.22%.
As to `CS(=O)(=O)c1ccc(Oc2nccc(-c3c(-c4ccc(F)cc4)ncn3C3CCNCC3)n2)cc1`, the inhibition turned out to be 4.65% in assay [1]; 1.77% in assay [2]; 3.04% in assay [3]; 5.24% in assay [4]; 6.08% in [5]; 0.94% in assay [6]. In addition, the inhibition was 1.56% in assay [7], 3.74% in assay [8], 5.22% in assay [9] and 8.18% in [10].
For the molecule `Fc1ccc(-c2ncn(C3CCNCC3)c2-c2ccnc(Oc3cccc(F)c3)n2)cc1`, the inhibition is 7.07% in [1]; 3.15% in assay [2]; 5.32% in [3]; 7.16% in [4]; 6.88% in assay [5]; 0.95% in [6]. Moreover, the inhibition in assay [7] stood at 4.58%; in assay [8], 3.2%; in assay [9], 7.72%; in assay [10], 4.92%.

The values above are taken from ChEMBL document CHEMBL1961873, “Compounds: GSK PKIS; Assays: Nanosyn kinase panel” (2012).
